# Measured values reported in PMC4336329 (PLoS ONE, 2015).
# Among all 310,000 compounds or so, about 14,000 (4.5%) showed an effect of 50% or more. The effect is printed as a negative number. The list shows a part of the results.
# Biological target: human ether-à-go-go-related gene (hERG) potassium channel (human, UniProt Q12809)
# Assay: primary screen, population patch clamp on CHO cells stably expressing hERG
# 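Further: peak tail current of the secondary pulse compared with the same well before compound.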
# Sequence of human ether-à-go-go-related gene (hERG) potassium channel (Q12809 whole entry, looked up): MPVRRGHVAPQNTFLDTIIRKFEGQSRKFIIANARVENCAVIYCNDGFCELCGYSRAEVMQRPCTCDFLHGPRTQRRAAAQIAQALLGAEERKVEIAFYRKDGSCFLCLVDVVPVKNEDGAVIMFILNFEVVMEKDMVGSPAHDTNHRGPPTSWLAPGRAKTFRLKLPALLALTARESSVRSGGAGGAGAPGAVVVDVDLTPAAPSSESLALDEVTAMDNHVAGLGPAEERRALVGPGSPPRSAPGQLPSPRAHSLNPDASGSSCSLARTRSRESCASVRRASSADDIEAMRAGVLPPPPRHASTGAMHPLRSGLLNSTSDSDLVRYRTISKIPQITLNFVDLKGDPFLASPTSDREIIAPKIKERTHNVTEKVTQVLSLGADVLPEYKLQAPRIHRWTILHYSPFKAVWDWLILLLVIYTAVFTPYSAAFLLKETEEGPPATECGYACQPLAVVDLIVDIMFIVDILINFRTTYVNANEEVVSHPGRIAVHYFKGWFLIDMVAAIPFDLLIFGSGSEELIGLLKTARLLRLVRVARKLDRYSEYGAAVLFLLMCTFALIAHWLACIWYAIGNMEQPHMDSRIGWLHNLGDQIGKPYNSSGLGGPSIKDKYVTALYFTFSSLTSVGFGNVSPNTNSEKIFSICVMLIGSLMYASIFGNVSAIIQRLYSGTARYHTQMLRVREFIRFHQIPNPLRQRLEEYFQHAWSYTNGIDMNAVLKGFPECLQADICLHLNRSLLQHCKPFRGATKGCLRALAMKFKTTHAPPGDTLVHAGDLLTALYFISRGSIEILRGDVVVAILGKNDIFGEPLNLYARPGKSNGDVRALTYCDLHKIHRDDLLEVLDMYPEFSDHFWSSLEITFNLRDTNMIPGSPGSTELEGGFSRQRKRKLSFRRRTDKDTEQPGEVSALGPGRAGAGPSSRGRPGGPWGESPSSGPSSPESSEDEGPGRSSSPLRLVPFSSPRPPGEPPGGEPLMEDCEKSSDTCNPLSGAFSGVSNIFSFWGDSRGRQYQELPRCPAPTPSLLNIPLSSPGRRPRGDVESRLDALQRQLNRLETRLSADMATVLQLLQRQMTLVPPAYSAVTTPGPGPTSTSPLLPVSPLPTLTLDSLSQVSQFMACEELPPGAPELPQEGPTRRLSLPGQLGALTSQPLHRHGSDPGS
row,Structure (SMILES),"hERG current change (%, negative = inhibition) at 10uM [%]"
1,CCOC(=O)c1c(C)c(C(=O)Nc2cc(OC)ccc2OC)c(C)n1CC,-22.5
2,N#CC(C#N)=Cc1ccc(N2CCCC2)cc1,4.17
3,CC(C)c1ccc(C(=O)N2CCN(c3cnn(C)c(=O)c3Cl)CC2)cc1,-64.4
4,CCOC(=O)C1CCN(CC(=O)c2c(C)[nH]c3cc(C)ccc23)CC1,-60.5
5,N#C/C(=C\Nc1ccccc1O)c1nc2ccccc2o1,-3.66
6,Cc1ccc2nc(NC(=O)CSCC(=O)Nc3cc(C)on3)sc2c1,9.4
7,COc1cccc(NC(=O)Nc2cc(C(=O)NCC3CCCO3)ccc2N2CC3CC(C2)c2cccc(=O)n2C3)c1 (stereo not drawn),4.39
8,Cc1csc(=N)n1Cc1ccccc1,-1.23
9,CCCCN1C(=O)Cc2c1nc(N)c1c(N)nc(N(CCC)CCC)c(C#N)c21,13.5
10,COc1ccc(OC)c2sc(N(CCN(C)C)C(=O)c3ccc4ccccc4c3)nc12.Cl,-11.3
11,Cc1cc(-c2csc(NC(=O)C3=COCCO3)n2)c(C)n1C,2.93
12,COc1ccc(/C=C/c2cc(=O)c3cc(Cl)ccc3o2)cc1,7.69
13,O=C(COc1ccc(F)cc1)N1CCC(c2ccccc2)C1 (stereo not drawn),-27.7
14,NC(=S)N/N=C/c1coc2ccc(F)cc2c1=O,10.3
15,COc1ccc(-c2cc(C(=O)O)c3c(C)nn(-c4ccccn4)c3n2)cc1,-4.84
16,C[C@@H](C(=O)Nc1cccc(S(=O)(=O)N2CCOCC2)c1)N1C(=O)C2CC=CCC2C1=O (stereo partly drawn),7.32
17,COc1ccc(OC)c(NC(=O)Nc2ccc3[nH]ccc3c2)c1,-0.435
18,O=C(NCCCl)Nc1cccc(Br)c1,6.3
19,Cc1cccc(N(C(=O)c2csnn2)C(C(=O)NC(C)(C)C)c2ccncc2)c1 (stereo not drawn),0.743
20,Cc1nnc(SCC(=O)NC2CCCc3c2cnn3-c2ccccc2F)o1 (stereo not drawn),20.5
21,CCn1c(CC(=O)Nc2ccc(C)cc2)nnc1SCC(=O)NCc1ccccc1,4.42
22,N#Cc1cnn2c3c(cnc12)C(=O)N1CCc2ccccc2C1C3 (stereo not drawn),-11.3
23,CCOc1ccc(NC(=O)COC(=O)COc2cccc3c2OC(C)(C)C3)cc1,9.57

row,Structure (SMILES),"hERG current change (%, negative = inhibition) at 10uM [%]"
1,CCCC(=O)NC(NC(=S)Nc1c(C)n(C)n(-c2ccccc2)c1=O)C(Cl)(Cl)Cl (stereo not drawn),0.602
2,CN1CCN(C(=O)N2c3ccccc3CCc3ccccc32)CC1,11.9
3,COC(=O)N/N=C/c1cc(C)n(-c2ccccc2)c1C,16.1
4,O=C(c1cccc(F)c1)N1CCN(S(=O)(=O)c2ccccc2)CC1,0.349
5,O=C(Nc1ccc(C(=O)Oc2ccccc2)c(O)c1)c1ccco1,2.5
6,COc1ccc(/C=C\C(=O)Oc2cccc(/C=N/NC(=O)Cc3ccc(OC)c(OC)c3)c2)cc1,1.34
7,CN(CCC#N)C(=S)NC(=O)c1ccc(S(=O)(=O)N2CCOCC2)cc1,23.7
8,Cc1cc(=O)[nH]c(N2CCCC2)n1,22.4
9,CC(C)Oc1ccc(C2CC(=O)N(c3cccc(/C=C/C(=O)O)c3)C2=O)cc1 (stereo not drawn),22.3
10,O=C(NCCc1ccccc1)C(=O)N/N=C/c1ccc2c(c1)OCO2,-7
11,COc1ccc(CC(=O)Nc2cccc(S(=O)(=O)N3CCCC3)c2)cc1OC,-3.58
12,CCCCCc1nnc(NC(=O)Cc2cccs2)s1,4.6
13,Cc1ccnc(NS(=O)(=O)c2ccc(NC(=O)C3CCCCC3C(=O)O)cc2)n1 (stereo not drawn),21.5
14,Cc1ccc2cc3cc(C(=O)NCCCN4CCc5ccccc5C4)oc3nc2c1,-54.9
15,CN(c1ccccc1)S(=O)(=O)c1ccc(C(=O)NCCc2ccccc2)cc1,19.6
16,CCOc1ccc2nc(N3C(=O)CNC3=S)sc2c1,1.72
17,CC1CCCC(NC(=O)C2N(CCCN3CCCC3)C(=O)C3C(C(=O)Nc4ccc(Cl)cc4)C4C=CC32O4)C1C (stereo not drawn),1.89
18,CN1C(=O)CSc2ccc(NC(=O)Nc3ccccn3)cc21,2.02
19,COc1cc(C(=O)N2CCN(c3ccccc3)CC2)c([N+](=O)[O-])cc1OC,10.7
20,N#C/C(=C\Nc1ccc(F)c(Cl)c1)S(=O)(=O)c1ccccn1,-6.01
21,O=C(c1cccc(Cl)c1)C1CCCN(S(=O)(=O)c2ccccc2)C1 (stereo not drawn),4.23
22,CC(C)c1ccc(/C=C/c2ccc(=O)n(C)n2)cc1,-23.2
23,COc1cc(C)c(C#N)c(OC)n1,7.96

row,Structure (SMILES),"hERG current change (%, negative = inhibition) at 10uM [%]"
1,C=CCn1cc(C(=O)N2CCN(C)CC2)c(=O)c2cc(S(=O)(=O)N(CC)CC)ccc21,3.85
2,O=C(O)C(=O)O.O=[N+]([O-])c1cccc(CN2CCN(Cc3ccc(Br)cc3)CC2)c1,-72.4
3,O=C(c1ccc2snnc2c1)N1CCCCC1,8.38
4,c1ccc(-n2nnnc2NC2CCCCC2)cc1,11
5,COc1ccc(C(=O)NNC(=S)NC(=O)c2cc(-c3ccccc3)nc3ccccc23)cc1,9.22
6,COc1cc(/C=N/NC(=O)c2cccc([N+](=O)[O-])c2)ccc1O,-28.3
7,C=CCOc1cccc(CNCCCN2CCOCC2)c1.Cl,6.15
8,O=C(O)C(Cc1ccccc1)n1cnnn1 (stereo not drawn),7.85
9,CN1CC[n+]2c(CN3C(=O)c4ccccc4C3=O)csc21.[I-],13.5
10,Cn1c(=O)c(N)c2c3c(c(Br)ccc31)C(=O)c1ccccc1-2,-16.6
11,Clc1ccc(Oc2cccc(/C=N/n3cnnc3)c2)cc1,-27.8
12,O=C(CCn1cccn1)Nc1ccc2c(c1)OCCO2,4.66
13,COC(=O)c1ccccc1NC(=O)CN(Cc1ccccc1)S(C)(=O)=O,-3.52
14,O=C(CSc1ccc2ccccc2n1)NCCC1=CCCCC1,-0.0904
15,Cn1c(SCC(=O)c2ccccc2)nnc1C1CC1,-1.41
16,Cc1ccc(NS(=O)(=O)c2ccc(-c3cnc(C4CC4)o3)cc2)cc1,21.2
17,CC(=O)Oc1ccc(C(=O)Nn2cnnc2)cc1,-6.92
18,Cc1cc(C)c(NC(=O)CCCn2c(=O)oc3ccccc32)c(C)c1,-2.3
19,CCOc1ccccc1NC(=O)CSc1nnc(-c2cccnc2)o1,-24.8
20,CC/C(=N\NC(=S)NC(C)C)c1ccc(OC)c(OC)c1,-17.9
21,COc1ccc(C(=O)Nc2cccc(C(C)=O)c2)cc1OC,-2.4
22,Oc1ccccc1-c1cc(-c2ccccc2Cl)[nH]n1,5.05
23,CCOC(=O)/C(=C/c1ccc(Cl)cc1)NC(=O)c1ccco1,-38.8

row,Structure (SMILES),"hERG current change (%, negative = inhibition) at 10uM [%]"
1,COc1ccc(/C=C2\CCCc3c2nc2ccccc2c3C(=O)OCC(=O)c2c(N)n(C)c(=O)n(C)c2=O)cc1,3.7
2,COc1cccc(C(=O)Nc2cccc3ccccc23)c1,16.8
3,COc1cccc(CNc2nc3nc(C)c(Cl)c(C)n3n2)c1,-57.9
4,CC(C)C1C(c2ccccc2)NC(c2ccccc2)CC1(O)c1ccc(F)cc1.Cl (stereo not drawn),6.25
5,CC1Cc2ccccc2N1C(=O)CN1C(=O)NC(C)(c2ccc3c(c2)OCCO3)C1=O (stereo not drawn),1.12
6,COc1ccc(S(=O)(=O)N2CCCOC2CNC(=O)C(=O)NC2CCCC2)cc1 (stereo not drawn),4.51
7,COc1ccc(N2CCN(C(=O)CSc3nc(C)cs3)CC2)cc1,-1.29
8,COC(=O)c1nccnc1C(=O)Nc1ccccc1N1CCOCC1,9.61
9,COc1ccccc1N(CC(=O)NCC1CCCO1)C(=O)CNS(=O)(=O)c1ccccc1 (stereo not drawn),-0.369
10,O=C(c1cccs1)N1CC=C(c2ccccc2)CC1,-14.5
11,CC(=O)Nc1cc(OC(=O)c2ccco2)cc(OC(=O)c2ccco2)c1,-15.1
12,Cc1ccc2c(CN3CCCCC3C)cc(=O)oc2c1.Cl (stereo not drawn),-41.3
13,COc1ccc(C(=O)/C=C/c2cccc(OCc3ccccc3)c2)cc1CSCC(=O)O,7.09
14,CS(=O)(=O)N1CCN(C(=S)NCc2ccc(F)cc2)CC1,15.8
15,Cl.c1ccc(Cn2nnnc2C(c2cccs2)N2CCc3ccccc3C2)cc1 (stereo not drawn),0.489
16,COC(=O)c1cccc(COC(=O)c2ccccc2NC(=O)c2ccco2)c1,9.74
17,CCCNC(C)(C)COC(=O)c1ccccc1.Cl,7.55
18,Cc1ncsc1C(=O)NCc1ccc(N2CCCC2=O)cc1,-1.49
19,O=C(NNC(=O)c1ccccc1O)c1cc2ccccc2o1,2.41
20,CCn1c(=NC(=O)CS(=O)(=O)c2ccc(C)cc2)sc2cccc(OC)c21,-0.869
21,CCOc1ncccc1C(=O)NCC(c1ccccc1)N(C)C (stereo not drawn),-22.4
